Data as given in publication PMC4336329 (PLoS ONE, 2015).
About 2,200 (0.71%) of roughly 310,000 compounds showed an effect of 50% or more. The effect is printed as a negative number. The list shows a part of the results.

biological target: human ether-à-go-go-related gene (hERG) potassium channel (human, UniProt Q12809); experiment: primary screen, population patch clamp on CHO cells stably expressing hERG
Sequence (Q12809 whole entry, looked up): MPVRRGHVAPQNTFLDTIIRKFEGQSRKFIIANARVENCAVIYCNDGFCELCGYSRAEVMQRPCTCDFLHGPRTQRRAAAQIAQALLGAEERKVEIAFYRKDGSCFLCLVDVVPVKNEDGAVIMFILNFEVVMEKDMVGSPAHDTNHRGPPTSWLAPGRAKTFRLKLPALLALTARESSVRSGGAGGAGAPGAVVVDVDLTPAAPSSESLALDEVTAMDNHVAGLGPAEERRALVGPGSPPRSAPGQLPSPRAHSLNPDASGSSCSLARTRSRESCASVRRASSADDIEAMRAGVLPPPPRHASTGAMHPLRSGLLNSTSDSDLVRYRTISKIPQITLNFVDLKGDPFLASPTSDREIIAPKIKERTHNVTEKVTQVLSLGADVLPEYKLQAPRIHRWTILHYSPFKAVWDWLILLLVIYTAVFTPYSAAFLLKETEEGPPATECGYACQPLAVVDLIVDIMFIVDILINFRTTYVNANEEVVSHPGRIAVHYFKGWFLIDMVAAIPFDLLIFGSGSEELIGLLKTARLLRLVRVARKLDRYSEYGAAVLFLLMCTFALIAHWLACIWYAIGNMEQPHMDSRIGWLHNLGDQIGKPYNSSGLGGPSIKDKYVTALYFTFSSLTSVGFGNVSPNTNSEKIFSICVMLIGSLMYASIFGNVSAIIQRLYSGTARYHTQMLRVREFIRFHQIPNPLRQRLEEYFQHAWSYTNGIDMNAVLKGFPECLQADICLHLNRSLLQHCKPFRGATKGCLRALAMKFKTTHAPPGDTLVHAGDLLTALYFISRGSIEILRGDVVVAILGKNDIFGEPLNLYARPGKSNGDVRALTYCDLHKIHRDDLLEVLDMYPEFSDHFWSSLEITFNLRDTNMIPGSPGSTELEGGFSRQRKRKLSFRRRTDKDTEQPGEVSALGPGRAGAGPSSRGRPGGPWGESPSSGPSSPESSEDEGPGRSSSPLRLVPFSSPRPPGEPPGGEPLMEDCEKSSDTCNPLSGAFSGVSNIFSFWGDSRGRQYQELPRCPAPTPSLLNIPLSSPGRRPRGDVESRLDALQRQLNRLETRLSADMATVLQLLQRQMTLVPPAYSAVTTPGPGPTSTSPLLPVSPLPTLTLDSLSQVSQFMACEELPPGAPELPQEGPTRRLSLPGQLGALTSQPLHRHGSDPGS

SMILES	hERG current change (%, negative = inhibition) at 1uM [%]
Nn1c(SCC(=O)Nc2nccs2)nnc1-c1cccnc1	1.85
Cc1ccc(CN2CCc3[nH]c(=S)[nH]c(=O)c3C2)cc1	14.5
CCOc1ccc(Cl)cc1S(=O)(=O)NCc1ccccn1	4.87
CCn1c(CC(=O)Nc2ccc(C)cc2)nnc1SCC(=O)N1CCOCC1	-9.11
Clc1cccc(-c2nn3c(Cn4cnc5ccccc54)nnc3s2)c1	-8.98
CC1(c2ccc([N+](=O)[O-])c(CS(=O)(=O)c3ccccc3)c2)OCCO1	12.8
Cc1cccc(N2CC(C(=O)Nc3cccc(S(=O)(=O)N4CCCCC4)c3)CC2=O)c1C (stereo not shown)	4.58
NS(=O)(=O)c1ccc(CNC(=O)c2cc(-c3ccccn3)nc3ccc(Cl)cc23)cc1	9.6
COc1ccc(-c2cc(C(=O)NCCCN3CCOCC3)on2)cc1OC	12.7
Cc1ncc(S(=O)(=O)c2ccccc2)c(-c2ccccc2Cl)n1	2.7
COc1ccc(O[C@H]2C=C[C@@H](c3ccccc3)O[C@@H]2CO/N=C/C[C@@H]2C=C[C@H](OC(C)=O)[C@@H](COC(C)=O)O2)cc1	8.21
O=C(Nc1ccc(Cl)cc1Cl)c1csc(-c2cccnc2)n1	8.29
Cc1ccccc1C(=O)c1c[nH]c(C(=O)NCC2CCCO2)c1 (stereo not shown)	6.32
O=C(O)C1(c2ccccc2)CCC(Nc2ccccc2)C1 (stereo not shown)	12.8
C=C(C)CSc1nnc([C@@H](NC(=O)OC(C)(C)C)C(C)CC)o1 (stereo partly shown)	7.67
CCOC(=O)C1CCCN(CCC(=O)Nc2ccccc2C)C1.Cl (stereo not shown)	11.3
Cc1cc(C)cc(C(=O)NCC(=O)N2CCN(c3cccc(Cl)c3)CC2)c1	6.19
O=S(=O)(NC1CCCCC1N1CCN(c2ccc(F)cc2)CC1)c1ccccc1 (stereo not shown)	4.15
Cc1c(NC(=O)COc2ncnc3ccccc23)c(=O)n(-c2ccccc2)n1C	9.5
Clc1ccccc1Cn1c(/C=C/c2ccco2)nc2ccccc21	24
COC(=O)C(Cc1cnc(Cl)s1)(C(=O)OC)c1ccc([N+](=O)[O-])cc1	-7.03
COc1ccc(C(=O)NC2CC(C)(C)Cc3c2cnn3-c2ccccc2)cc1OC (stereo not shown)	2.95
COCCCNC(=O)Cn1ccc(N)nc1=O	17
O=C(NC1CCCC1)c1cccc(NC(=O)c2ccco2)c1	11.6
Cc1cccc(C(=O)Oc2ccccc2C(=O)N2CCOCC2)c1	0.226
CC(C)(C)c1ccc(C(=O)N/N=C2\C3CN4CCN(C3)CC2(c2ccccc2)C4)cc1	7.35
COCCNC(=O)C(c1ccncc1)N(C(=O)c1sc(C)nc1C)c1cccc(C)c1 (stereo not shown)	18.9
CCCC(=O)Nc1ccc(C(=O)NNC(=O)c2ccco2)cc1	19.3

SMILES	hERG current change (%, negative = inhibition) at 1uM [%]
COc1cc(C(=O)O)ccc1OC(C)=O	13.2
COc1cccc(-c2onc3ccc(C4(C)OCCO4)cc23)c1	12
COc1cc(CCC(=O)OCC(=O)Nc2c(C)cccc2C(C)C)cc(OC)c1OC	11.5
CCOc1ccc(S(=O)(=O)N2CCOCC2)cc1NC(=O)C1=COCCO1	0.815
O=C(CCN1C(=O)C2CC=CCC2C1=O)Nc1ccccc1Cl (stereo not shown)	10.9
CCOC(=O)c1sc(NC(=O)CN2CCN(c3ccccc3)CC2)nc1C	11.8
Cc1cc(Cl)ccc1OCC(=O)NC(=S)Nc1ccccc1N1CCOCC1	14.7
CCOc1nc(NCCO)nc(Nc2cc(Cl)ccc2OC)n1	12.8
Cc1ccc(-n2c3c(c(=O)[nH]c2=S)C(C(F)(F)F)(C(F)(F)F)NC(=O)N3)cc1	-3.05
COc1ccc(-n2ncc3c(NCC(C)C)ncnc32)cc1	6.4
Cc1ccc(S(=O)(=O)N2CCC(=O)N(CCOCc3ccc(C(F)(F)F)cc3)CC2)cc1	1.04
Cc1ccc(S(=O)(=O)c2nc(-c3ccccc3)oc2N2CCC(C(N)=O)CC2)cc1	-4.34
O=C(C1CCCN(S(=O)(=O)Cc2ccccc2)C1)N1CCc2ccccc21 (stereo not shown)	4.67
Cc1ccccc1Nc1nc(N)nc(COC(=O)c2cccc(S(=O)(=O)N(C)c3ccccc3)c2)n1	0.0292
C/C(N)=C(/C#N)C(=O)COC(=O)COc1ccc(Cl)cc1	4.43
Cc1ccc(/C=N/n2c(-c3ccc(Cl)cc3)n[nH]c2=S)o1	9.87
O=C(CSc1nnnn1C1CC1)N1CCN(c2ccccc2F)CC1	7.66
CCOC(=O)N1CCC(NC(=O)c2ccc(CS(=O)c3ccc(Cl)cc3)o2)CC1 (stereo not shown)	15
CC(=O)Oc1ccc(/C=C2\C=C(c3ccc(C)cc3)OC2=O)cc1	11.6
CCCCNC(=O)c1oc2ccc(S(=O)(=O)N3CCCC3)cc2c1C	4.78
CCCN(CCC)CCCNC(=O)c1cc2c(=O)[nH]c3ccccc3c2s1	10.3
CCN(CCn1cccn1)Cc1nc(-c2ccc(C(=O)OC)cc2)no1	13.2
Cc1ccc(NC(=O)COC(=O)Cn2c(C)csc2=O)c([N+](=O)[O-])c1	16.5
CCOc1ccc(NC(=O)CCc2c(C)nn(-c3ccc(N4CCCCC4)nn3)c2C)cc1	10.9
CCN(CC)S(=O)(=O)c1ccc(S(=O)(=O)N2CCN(CCC#N)CC2)cc1	8.96
CCOc1ccc(N2C(=O)C3ON(C)C(c4ccc([N+](=O)[O-])cc4)C3C2=O)cc1 (stereo not shown)	15.1
CC(C)(C)C(=O)c1cn(Cc2ccccc2)c2ccccc12	17.3
